Data taken from PubChem BioAssay (NCATS).
This list was built around the results that the source calls inconclusive (neither active nor inactive); the mix of calls is not that of the screen. For part of these data: Potencies of inconclusive entries are doubtful fits and often do not repeat. Activity calls are given as the source filed them. The call rests on the fitted dose curve; in most records, active means well fitted cell-killing curve with a large enough effect; inconclusive means small, poorly fitted or top-dose-only effect, or effect the other way; inactive means no such curve, though single readings can be large or run the other way.

Key:
[1] = Viability qHTS for spleen associated tyrosine kinase inhibitor (SYKi) naive MV4-11 cells (AID 1963823); details: MV4-11 AML viability, CellTiter-Glo luminescence, 72 h; viability (% of control): at 45 µM (top of the series); further: nearly all actives have a fitted effect of over 40% in size; further: potency means the concentration at half of the fitted maximal effect
Summary of the method: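 Luminescence from CellTiter-Glo, developed 10 min at room temperature, gave viability of MV4-11 cells never exposed to SYK inhibitor. Cells (500/well) had been incubated with compounds for 72 hr under standard culture conditions.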

[2] = Viability qHTS for spleen associated tyrosine kinase inhibitor (SYKi) drug resistant MV4-11 cells (AID 1963824); further: nearly all actives have a fitted effect of over 35% in size
Summary of the method: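 SYK-inhibitor-resistant MV4-11 AML cells were seeded at 500 per well onto compound and cultured 72 hours (37 °C, 5% CO2). CellTiter-Glo was then added, and after 10 min at room temperature, luminescence gave viability.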
Tags describe the fitted curve by direction and shape.

## CC1=C2CC3C(CCC3(C)O)C(C)(O)CC2OC1=O (centres undefined)
[1]
  Potency: inactive

## C[N+]1(C)CCCC(OC(=O)C(O)(c2ccccc2)c2ccccc2)C1 (centres undefined)
[1]
  Potency: inactive

## COc1cc(Nc2nc3c(s2)CCCC3c2ccccc2)ccc1-n1cnc(C)c1 (centres undefined)
[1]
  viability (% of control): inactive: 89.8% [at 9.25 µM]

## CC(=O)O[C@H]1CC(C)(C)CC2[C@]13CO[C@@]21CCC2[C@@]4(C)CC[C@H](O[C@@H]5OC[C@H](O[C@@H]6O[C@H](CO)[C@@H](O)[C@H](O)[C@H]6O[C@@H]6OC[C@@H](O[C@@H]7O[C@H](CO)[C@@H](O)[C@H](O)[C@H]7O)[C@H](O)[C@H]6O)[C@H](O)[C@H]5O[C@@H]5O[C@H](CO)[C@@H](O)[C@H](O)[C@H]5O)[C@@](C)(CO)C4CC[C@@]2(C)[C@]1(C)C[C@H]3O (some centres undefined)
[1]
  Potency: active: 1.55 µM

## C=C1C(=O)O[C@@H]2C=C(COC(C)=O)CC/C=C(\CO)CC[C@@H]12
[1]
  Potency: inconclusive: 12.8 µM [cytotoxic, partial curve]

## CC(C)(O)c1ccn2c(-c3ccc(F)c(-c4ccc(F)cc4C#N)c3)cnc2c1F
[1]
  Potency: active: 9.2 µM

## CNC(=O)c1ccc(-c2cnc3cnc(C(=O)N(C)c4ccc(Cl)cc4)cn23)cc1
[1]
  Potency: inconclusive: 10.3 µM [cytotoxic, partial curve]

## C/C=C(\C)C(=O)OCC1OC(OCC2OC(OC3(CO)OC(CO)C(O)C3O)C(O)C(O)C2O)C(O)C(O)C1O (centres undefined)
[1]
  Potency: inconclusive: 2.43 µM [cytotoxic, partial curve, poor fit]
[2]
  Potency: inactive
